{"source": "paper PMC12136788", "binders": {"B1": {"name": "chr1:43830971:43830972:-_ENSG00000066322_ENST00000372458|hu_hu|FALSE|FALSE (ssRNA)", "RNA": "GGGAGUUCUACAGUCCGACGAUCACGGAGCUGGAAGGGCUUCCGAUUAGCCAUGAUGCGAGGCCCAAGUGAGAGAACGAAGUACACGUAGGUCAGGAGAAUGGAGGUCAUUAGCAAGGGGGACCCCAUCAGAGGGUAGCCCUGCAACAGAGGAUUGAGCAUCA"}, "B2": {"name": "chr10:69676056:69676057:+_ENSG00000096717_ENST00000212015|hu_hu|FALSE|FALSE (ssRNA)", "RNA": "GGGAGUUCUACAGUCCGACGAUCAUGGAAAAUGUAACGAUUUGGUGGCAAAAACAGAUACUGAUUACCAUCAAGCCGCCUACUAAUCUGCUCCUUUGCCACUCUAUUAGGCCAGCAUUUUCUCACUGUUCCAGCCACUGAAGUCAACAGAGGAUUGAGCAUCA"}, "B3": {"name": "chr2:198351390:198351391:-_ENSG00000144381_ENST00000345042|hu_hu|hu_hu_hu_mus_False|38_38 (ssRNA)", "RNA": "GGGAGUUCUACAGUCCGACGAUCUCAUUCCCACCCUCCACAGAAAGGCUGCUUCUGAACUCUCAUGUGGUGACACAGCGCUACAGUCCUGAUGCUCACAGAAUAGUAGAGAUGCCUCAGUGAUUUAAGUUGAAAGCAGGACACCAACAGAGGAUUGAGCAUCA"}, "B4": {"name": "chr9:124914678:124914679:-_ENSG00000119421_ENST00000373768|hu_hu|FALSE|FALSE (ssRNA)", "RNA": "GGGAGUUCUACAGUCCGACGAUCGGGCUUAUCACAUUGAGCUCCAUAGUGAUGGGCCGCAGCUUUAAGCACAGCAGAACUAAUUUUCACCUCAUCUACUUUCAGCUCCUCUAGAGUGGGCAGCUCCACUAUCCCCGGCAUGACCAACAGAGGAUUGAGCAUCA"}, "B5": {"name": "chr8:117878989:117878990:-_ENSG00000164754_ENST00000297338|hu_mus|motif|central (ssRNA)", "RNA": "GGGAGUUCUACAGUCCGACGAUCCCAGAGGCCCUCGUUUACUGAGGACAAAAUGUGCGUAGAACAUUUUUCUUAUUUGCGGUGAAAUAAGAAGAAACCUGGAUCUCGGCGGGGAGCCGGGAGGGGUGGGUGGCCCGGGGAGGGCAACAGAGGAUUGAGCAUCA"}, "B6": {"name": "chr6:114281168:114281169:-_ENSG00000196591_ENST00000368632|hu_hu|hu_hu_hu_mus_True|68_88 (ssRNA)", "RNA": "GGGAGUUCUACAGUCCGACGAUCUUCCAUUUUUCGGUAUAAACCAUAAUUUAACAGCAAGUUAUGAGUCAUGCGGAUUCUAUGAGGCUUCAUGGGAUGACCCUGGCCAUAAUAAUAAUUGCCAAUAUCACCAUCAUAGUAGUACAACAGAGGAUUGAGCAUCA"}}, "note": "Some of the results follow."}
{"target": "T1, UNK ZnF1-3 (human, UniProt Q9C0B0 31-174)", "T1 sequence": "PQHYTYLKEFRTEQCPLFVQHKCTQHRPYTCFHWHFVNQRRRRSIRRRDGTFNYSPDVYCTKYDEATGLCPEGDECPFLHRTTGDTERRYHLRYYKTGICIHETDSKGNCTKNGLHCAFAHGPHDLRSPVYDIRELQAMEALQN", "test": "nsRBNS (natural sequence RNA bind-n-seq); RBNS binding buffer (assumed for nsRBNS): 25 mM Tris pH 7.5, 150 mM KCl, 3 mM MgCl2, 0.01% Triton X-100, 500 ug/ml BSA, 20 U/ml SUPERase-In, 4 C; UNK is unkempt and MSI1 is Musashi-1; names of the RNAs are library labels; protein concentration not given here; high values mean tight binding", "units": {"binding signal": "enrichment R"}}
{"binder": "B1", "binding signal": 1.68}
{"binder": "B2", "binding signal": 0.598}
{"binder": "B3", "binding signal": 1.51}
{"binder": "B4", "binding signal": 0.869}
{"binder": "B5", "binding signal": 1.48}
{"binder": "B6", "binding signal": 1.08}
